# Measured values reported in PubChem BioAssay AID485364 (National Center for Advancing Translational Sciences (NCATS), 2010).
# About 11,000 (3.1%) of roughly 360,000 compounds were called active. The inconclusive results got no clear call from the source; some entries with a clear call stand among them for comparison. Calls follow the shape of the dose curve; as a rule, active = well fitted inhibition curve with a large enough effect; inconclusive = small, poorly fitted or top-dose-only effect; inactive = no such curve, though single readings can be large or run the other way. No potency is given beside an inconclusive call; the fits are too rough.
# Target: Schistosoma mansoni thioredoxin glutathione reductase (TGR) (UniProt Q962Y6)
# Assay: qHTS Assay for the Inhibitors of Schistosoma Mansoni Peroxiredoxins; also: nearly all actives have a fitted effect of over 60% in size
# Conditions: purified TGR, DTNB reduction, TNB absorbance 405 nm; activity change, negative = inhibition: at 114 µM (top of the series) unless noted
# Procedure, shortened: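 First, TGR (20 nM dispensed) and NADPH were mixed with compound. Second, a 15 min room-temperature incubation followed. Third, further NADPH and then DTNB were added to start the reaction. Finally, TNB absorbance was monitored kinetically.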
# % is scaled to controls: 0 for no effect and ±100 for the full control effect; potency is read from the fitted curve at half-maximal effect; tags tell the direction and shape of the fitted curve.
SMILES,Potency,"activity change, negative = inhibition"
CCn1c(COc2ccc(=O)n(-c3ccccc3)n2)nnc1SCc1ccc(OC)cc1,"inconclusive [inhibitor, full curve, poor fit]",
Cc1cc2cc(C=C(C#N)C#N)c(Cl)nc2cc1C,active: 3.16 µM,
O=C(c1ccc(COc2ccccc2Cl)o1)N1CCCC1,"inconclusive [inhibitor, single point]",
Cc1nc(SCC(=O)Nc2cc(Cl)ccc2[N+](=O)[O-])nc(C)c1C,"inconclusive [inhibitor, full curve, poor fit]",
Cc1ccc(-n2nccc2-c2nn(-c3cccc(C(F)(F)F)c3)c(=O)n(C)c2=O)cc1,"inconclusive [inhibitor, partial curve, poor fit]",
Cc1nnc2sc(SCC(=O)Nc3nccs3)nn2c1=O,"inconclusive [inhibitor, partial curve]",
CNC(=O)Oc1ccc(-c2cn3cc(Cl)ccc3n2)cc1,active: 35.5 µM,
CCN(CC)C(=O)COC(=O)c1ccc(C)c(NC(=O)c2ccco2)c1,"inconclusive [inhibitor, partial curve]",
O=C1NCCN2CCCC12 (stereo not given),active: 25.1 µM,
CCOC(=O)C1=C(c2ccccc2)NC(SC)=C(C#N)C1c1cccnc1 (stereo not given),"inconclusive [inhibitor, single point]",
CCOC(=O)c1ccc(NC(=O)CSc2nnc(CNc3ccc(OC)cc3)n2C)cc1,"inconclusive [inhibitor, partial curve]",
CCOc1ccc(/C=N/NC(=O)c2cc3c(OC)cccc3[nH]2)cc1,,inactive: -19.6%
Cc1ccc(-n2nc3c(c2NC(=O)CC(C)C)CS(=O)(=O)C3)cc1,"inconclusive [inhibitor, partial curve]",
CCOC(=O)C(=Cc1ccc(-n2cncn2)cc1)C(=O)OCC,active: 15.8 µM,
Cc1c(-c2cc(Br)ccc2O)nc2cc3c(cc2c1C)OCO3,,inactive: -28.5%
C=CCNC(=O)CSc1nc2sc3c(c2c(=O)n1CCCOC)CCC3,"inconclusive [inhibitor, single point]",
O=C(NC(=S)NCc1ccccc1)c1ccccc1Br,"inconclusive [inhibitor, partial curve]",
Cc1ccc(/C(O)=C2/C(=O)C(=O)N(c3ccccn3)C2c2ccc(F)cc2)cc1 (stereo not given),"inconclusive [inhibitor, partial curve]",
Cc1cccc(NC(=S)NCc2ccncc2)c1C,"inconclusive [inhibitor, partial curve]",
Cc1cc(C(=O)COc2cccnc2[N+](=O)[O-])c(C)n1Cc1ccco1,"inconclusive [inhibitor, partial curve]",
COc1ccccc1/C=C/C(=O)c1ccccc1,"inconclusive [inhibitor, full curve]",
Cc1ccc(S(=O)(=O)CCC(=O)Oc2ccc(-c3nnco3)cc2)cc1,active: 20 µM,
COc1ccccc1NC(=O)Cc1coc2cc(C)ccc12,,inactive: 0%

SMILES,Potency,"activity change, negative = inhibition"
Cc1cccc(CCNC(=O)CC2C(=O)NCCN2CC2CCCCC2)n1 (stereo not given),"inconclusive [inhibitor, partial curve]",
COC(=O)c1ccc(/C=C(\C#N)C(=O)NC(C)c2ccccc2)cc1 (stereo not given),,inactive: -23.4%
Cc1ccc(N(C)C(=O)c2cc(S(=O)(=O)N3CCCCC3)c[nH]2)cc1,,inactive: -13.9%
CCOC(=O)c1ccc(NC(=O)CC2SCCNC2=O)cc1 (stereo not given),"inconclusive [inhibitor, single point]",
O=C(CSc1nnc(-c2ccccc2Cl)o1)N1CCOCC1,,inactive: 0.606%
O=C1NC(=O)N(c2ccc3c(c2)OCO3)C(=O)/C1=C/c1ccsc1,"inconclusive [inhibitor, partial curve, poor fit]",
Clc1ccc(-c2cn3nc4c(nc3n2)CCCC4)cc1,"inconclusive [inhibitor, partial curve]",
CCCCn1c(N)c(N(CCOC)C(=O)c2ccc(-c3ccc(C(C)=O)cc3)o2)c(=O)[nH]c1=O,"inconclusive [inhibitor, partial curve]",
CN1CCN(c2ccc(Cl)cc2NC(=O)c2cc(=O)[nH]c3ccccc23)CC1,"inconclusive [inhibitor, single point]",
Cc1ccc(C)c2nc(Cl)c(C#N)cc12,"inconclusive [inhibitor, single point]",
Cc1cc2oc(C(=O)Nc3ccc(S(=O)(=O)Nc4ncccn4)cc3)cc(=O)c2cc1Cl,"inconclusive [inhibitor, single point]",
Cc1ccccc1C1C=C(c2ccc(Cl)cc2)Nc2nnnn21 (stereo not given),,inactive: 1.48%
Cc1ccc(C(=O)CSc2nc3ccccc3c(=O)n2N)o1,"inconclusive [inhibitor, partial curve]",
COc1cc(CN2CCNC(=O)C2CC(=O)NCCCN2CCOCC2)cc(OC)c1 (stereo not given),"inconclusive [inhibitor, partial curve]",
O=C(Nc1c2c(nn1-c1ccc(F)cc1)CS(=O)(=O)C2)c1ccc(S(=O)(=O)N2CCOCC2)cc1,,inactive: 0.153%
CN1CCN(C(=O)CCN2C(=O)/C(=C\c3ccccc3F)SC2=S)CC1,"inconclusive [inhibitor, full curve, poor fit]",
O=C(CCN1CCCCC1)c1ccc2c(c1)OCO2,active: 0.282 µM,
COC(=O)CCCC1=CC2=C(c3ccccc3)C(=O)C(C)(OC(=O)C3CCCC3)C(=O)C2=CN1C1CCCC1 (stereo not given),"inconclusive [inhibitor, partial curve]",
COc1ccc(N=C2S/C(=C\c3ccc(N4CCOCC4)o3)C(=O)N2CCc2c[nH]c3ccccc23)cc1,active: 12.6 µM,
CC(C)c1ccc(NC(=S)NN2CCN(C)CC2)cc1,"inconclusive [inhibitor, single point]",
O=C(c1cc2ccccc2oc1=O)N1CCN(c2ccccn2)CC1,,inactive: 2.22%
CCCCCn1c(NC(=O)c2ccco2)c(C(=O)OCC)c2nc3ccccc3nc21,"inconclusive [inhibitor, partial curve]",
